# Laboratory results from the supplement of paper PMC3334620.
# Over roughly 33,000 sequences, “E-score (-0.5 to 0.5)” has its median near -0.035; the highest 2% begin near 0.34. Some of the results follow.
# Target: T1, Mot3 (UniProt P54785)
# T1 sequence: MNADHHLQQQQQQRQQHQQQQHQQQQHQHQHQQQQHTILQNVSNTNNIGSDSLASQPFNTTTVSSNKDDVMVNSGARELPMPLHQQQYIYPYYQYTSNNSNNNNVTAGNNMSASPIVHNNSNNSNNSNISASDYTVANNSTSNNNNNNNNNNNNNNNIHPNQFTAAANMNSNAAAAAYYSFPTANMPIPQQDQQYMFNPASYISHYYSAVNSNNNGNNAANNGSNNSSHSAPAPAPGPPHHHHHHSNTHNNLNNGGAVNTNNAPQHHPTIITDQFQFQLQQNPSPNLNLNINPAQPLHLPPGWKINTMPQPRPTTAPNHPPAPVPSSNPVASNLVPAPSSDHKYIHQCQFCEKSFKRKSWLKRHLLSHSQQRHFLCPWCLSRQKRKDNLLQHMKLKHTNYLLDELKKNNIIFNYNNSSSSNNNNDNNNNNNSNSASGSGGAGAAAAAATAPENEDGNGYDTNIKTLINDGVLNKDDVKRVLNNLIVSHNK
# Test: PBM E-score (8-mer binding enrichment) (E-score (-0.5 to 0.5)); higher = stronger / more preferred TF binding; most listed sequences are background and not binding sites
# Settings: protein concentration: 200 nM; construct: GST-full length
# Procedure, shortened: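 Yeast transcription factors carrying a GST tag, as full-length proteins or DNA-binding domains, were produced by PURExpress in vitro transcription/translation. About 100-200 nM protein was applied to universal all-10-mer Agilent arrays, double-stranded by primer extension on fresh or once-stripped slides. Bound protein was detected with fluorescent anti-GST, and scans were normalised with masliner. The Universal PBM Analysis Suite gave each ungapped eight-base word, pooled with its reverse complement, an E-score, a modified Wilcoxon-Mann-Whitney statistic.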
row,Sequence,PBM E-score
1,ACGCTCTC,0.0108
2,AAGAACCT,0.191
3,CCCGAGCG,-0.228
4,GATATAAA,-0.0039
5,ACGGCAAC,0.106
6,GATTATGC,-0.145
7,ACCCTTGC,-0.076
8,ACACCACA,0.0531
9,CCTAATGA,0.128
10,ACTATTGG,-0.245
11,CTATGTCA,0.255
12,ACAACTTG,0.0638
13,AGGCTTTC,0.119
14,CGTTGAGA,-0.183
15,GCAGGTCA,0.0659
16,CAGGTCAG,-0.242
17,ACACAGAA,0.154
18,AACCGGGT,0.0626
19,AGAATTAA,0.0616
20,AATGCCAT,0.0283
21,AACCGGTT,0.0054
22,TCCGCCGA,-0.0253
23,GGAAACGA,0.0799
24,AAGCAGCC,-0.232
25,CGGCAGAG,-0.31

row,Sequence,PBM E-score
1,ACACATTC,0.183
2,CACTGAGA,-0.0286
3,AAATGAGA,0.0841
4,AAGTCATG,0.0606
5,CCGCAACC,-0.164
6,AGAGGGAA,-0.151
7,AATCGTTG,0.204
8,AGAGCATG,0.0764
9,AATGTTCT,0.0772
10,ATCCCGAA,-0.164
11,TAAATTGA,0.153
12,GTAGTCTA,0.0825
13,CTACTAAG,-0.123
14,TGCATACA,0.182
15,CGGTACTA,-0.28
16,ACCTGAAG,-0.135
17,GCGGACGA,-0.0883
18,AGCGCGTA,0.31
19,AAATAGGT,0.249
20,AGTAAACT,0.0571
21,CGCGCCCG,-0.216
22,ACGCTCAA,0.121
23,AGCACAAG,0.0406
24,CTGCCACA,-0.13
25,AAGCCTGT,0.159

row,Sequence,PBM E-score
1,CGACTGTC,-0.211
2,CGCCGCAC,-0.11
3,CGCAAATC,-0.158
4,CGAAAACA,0.124
5,CAGGCTAA,0.0181
6,GTTACCTA,0.369
7,AACCGGTC,-0.137
8,CTTGAAAA,0.0204
9,AATTTCCC,-0.164
10,ATCCCCTA,-0.2
11,AGACCGGA,-0.194
12,CGAGAGCA,-0.162
13,ATTTCCGC,-0.0932
14,AGATCCGA,-0.215
15,CTTTTAGC,-0.0495
16,TCACCAAA,0.085
17,ACGAGATG,-0.177
18,ATGCGATG,-0.0819
19,GCGTAAAA,0.314
20,GCTCTCTA,-0.159
21,CGTTGAAA,0.198
22,CCACTGAA,-0.0462
23,CATTAGCC,-0.184
24,AGCCGACC,-0.272
25,GCGAGCAA,-0.359

row,Sequence,PBM E-score
1,CTCTAAAC,-0.0173
2,CTGGCCAG,-0.208
3,AACTCTAA,-0.0907
4,GGATGATA,-0.0516
5,CTGGACAG,-0.166
6,CCAATAGC,-0.232
7,CACACCTC,-0.19
8,ATTAATTG,0.0309
9,ACGTTCCC,-0.216
10,ATTTTAGG,0.193
11,AAACGATA,0.145
12,AGAATCTA,0.0701
13,AACTTGTG,0.104
14,CGTCCAAA,-0.153
15,ATGGGAAG,-0.203
16,ATATGTTA,0.284
17,TACCCTGA,-0.109
18,CTGACGAC,-0.00982
19,CTTGCAAG,-0.102
20,ATAGCGTA,0.0277
21,AATGAGGA,-0.0696
22,ACAGCATC,-0.00926
23,AAACACAA,0.253
24,GTGCCCGA,0.245
25,AAGTACTG,-0.0249

row,Sequence,PBM E-score
1,ACACGCCG,0.18
2,ACATCCCG,0.0391
3,AGACGCGA,0.0228
4,CTTGCGTA,0.18
5,ACTTGTCA,0.157
6,CACCGACA,-0.112
7,AGAGTGAG,-0.00422
8,CGGAGGAC,-0.284
9,AACGGGTA,0.176
10,AAAAGTAG,0.0399
11,AGCAAGAC,0.00468
12,ACCTCATA,0.0208
13,AGAGCTCA,-0.266
14,CTCGTGTA,0.353
15,GGAGGTAA,0.0565
16,GCGATCGC,-0.0352
17,ATGTGTAG,0.303
18,GGTCATGA,-0.0434
19,CGAAACTA,-0.136
20,CGGTCCTC,-0.359
21,CAGGTGAC,0.168
22,ATCTAGAG,-0.149
23,AGGCCCCG,-0.0117
24,ATCTATGA,-0.0778
25,CTCATAAA,0.00564

row,Sequence,PBM E-score
1,ATACCTGA,0.0776
2,CCTAGACA,-0.19
3,CGATTTGC,-0.216
4,CCTCGCGC,-0.213
5,AGTGCAAT,0.0975
6,ATTGGTCG,-0.14
7,GATTACAA,0.359
8,GGGACAGA,-0.259
9,CGTACTCA,-0.0725
10,CAAGACAC,0.162
11,CCGGCGCA,-0.15
12,TCAAGCGA,-0.15
13,CGCGACGC,-0.148
14,ACAATGAA,0.186
15,GGCTTGAC,-0.149
16,CCCCCCAG,-0.353
17,AGCCGGTA,0.0147
18,CGCTGTGA,-0.0668
19,AACGTTTA,0.0821
20,GCCACTCC,-0.324
21,GTACGATA,0.0277
22,AGAGCTTG,-0.0503
23,ATGAGAGG,-0.287
24,ATTCACAG,-0.0781
25,ACGAAGAA,0.226

row,Sequence,PBM E-score
1,AGCCCGTA,0.00785
2,AAACACCC,-0.00769
3,CCCGTCGC,-0.217
4,ACGGAATA,0.0127
5,ACGCCGGA,-0.203
6,CTGCTTCA,-0.119
7,CCCCAAGG,-0.254
8,CAAAATTA,0.136
9,GTTGCACA,-0.0295
10,AAATCCAC,-0.0364
11,CCAACTGA,-0.0452
12,CGTCATAA,0.0391
13,AAACATGT,0.374
14,CGAGATTC,-0.192
15,CTGGCTGC,-0.138
16,CGTCCCTA,-0.165
17,CATGATAC,0.073
18,CCAAGTAG,-0.0147
19,CCTGGTCG,0.0914
20,ATTTTTTC,0.134
21,ATATACTG,-0.00128
22,AGGCAAGC,0.489
